These are yes or no findings as the source states them, for the method shown. In cells and extracts the contact can be indirect. Some binding calls cover weakened binding; strength is not graded here.
Experiments:
[1] = molecular target: T1, full-length Plk4 (transfected) (UniProt O00444); assay: co-IP; HEK293T cells transfected with the indicated constructs; TBSN buffer (20 mM Tris-HCl pH 8.0, 120 mM NaCl, 0.5% Nonidet P-40, 5 mM EGTA, 1.5 mM EDTA, 2 mM DTT); immunoblot; Supplementary Fig. 2b under thymidine or nocodazole treatment
T1 sequence: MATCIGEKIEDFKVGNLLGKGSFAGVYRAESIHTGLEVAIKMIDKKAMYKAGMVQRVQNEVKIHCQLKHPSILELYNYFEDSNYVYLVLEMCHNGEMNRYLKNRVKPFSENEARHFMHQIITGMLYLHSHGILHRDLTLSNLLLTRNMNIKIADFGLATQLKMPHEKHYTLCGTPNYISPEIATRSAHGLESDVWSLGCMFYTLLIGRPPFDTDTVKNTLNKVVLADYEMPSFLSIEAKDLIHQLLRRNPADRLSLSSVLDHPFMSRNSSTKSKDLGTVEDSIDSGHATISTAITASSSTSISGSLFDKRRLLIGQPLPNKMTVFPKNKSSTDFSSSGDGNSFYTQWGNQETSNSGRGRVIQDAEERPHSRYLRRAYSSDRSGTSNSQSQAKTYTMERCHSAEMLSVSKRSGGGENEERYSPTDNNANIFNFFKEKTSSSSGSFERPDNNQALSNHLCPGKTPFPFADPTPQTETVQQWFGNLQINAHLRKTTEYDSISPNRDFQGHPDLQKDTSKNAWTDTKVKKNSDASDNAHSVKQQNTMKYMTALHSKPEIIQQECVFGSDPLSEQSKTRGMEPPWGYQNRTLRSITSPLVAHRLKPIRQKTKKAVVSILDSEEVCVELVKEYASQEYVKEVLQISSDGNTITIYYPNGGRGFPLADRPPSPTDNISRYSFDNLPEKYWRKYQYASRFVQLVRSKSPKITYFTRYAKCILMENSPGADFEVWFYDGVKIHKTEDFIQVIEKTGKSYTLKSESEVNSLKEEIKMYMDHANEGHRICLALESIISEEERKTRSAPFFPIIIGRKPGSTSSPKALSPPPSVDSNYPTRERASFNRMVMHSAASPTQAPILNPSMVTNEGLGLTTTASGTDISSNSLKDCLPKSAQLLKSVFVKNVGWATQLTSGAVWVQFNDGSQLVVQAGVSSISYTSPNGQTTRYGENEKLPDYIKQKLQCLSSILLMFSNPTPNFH

Chains of the proteins cited; added tags and fusions are not shown.
UniProt Q16531: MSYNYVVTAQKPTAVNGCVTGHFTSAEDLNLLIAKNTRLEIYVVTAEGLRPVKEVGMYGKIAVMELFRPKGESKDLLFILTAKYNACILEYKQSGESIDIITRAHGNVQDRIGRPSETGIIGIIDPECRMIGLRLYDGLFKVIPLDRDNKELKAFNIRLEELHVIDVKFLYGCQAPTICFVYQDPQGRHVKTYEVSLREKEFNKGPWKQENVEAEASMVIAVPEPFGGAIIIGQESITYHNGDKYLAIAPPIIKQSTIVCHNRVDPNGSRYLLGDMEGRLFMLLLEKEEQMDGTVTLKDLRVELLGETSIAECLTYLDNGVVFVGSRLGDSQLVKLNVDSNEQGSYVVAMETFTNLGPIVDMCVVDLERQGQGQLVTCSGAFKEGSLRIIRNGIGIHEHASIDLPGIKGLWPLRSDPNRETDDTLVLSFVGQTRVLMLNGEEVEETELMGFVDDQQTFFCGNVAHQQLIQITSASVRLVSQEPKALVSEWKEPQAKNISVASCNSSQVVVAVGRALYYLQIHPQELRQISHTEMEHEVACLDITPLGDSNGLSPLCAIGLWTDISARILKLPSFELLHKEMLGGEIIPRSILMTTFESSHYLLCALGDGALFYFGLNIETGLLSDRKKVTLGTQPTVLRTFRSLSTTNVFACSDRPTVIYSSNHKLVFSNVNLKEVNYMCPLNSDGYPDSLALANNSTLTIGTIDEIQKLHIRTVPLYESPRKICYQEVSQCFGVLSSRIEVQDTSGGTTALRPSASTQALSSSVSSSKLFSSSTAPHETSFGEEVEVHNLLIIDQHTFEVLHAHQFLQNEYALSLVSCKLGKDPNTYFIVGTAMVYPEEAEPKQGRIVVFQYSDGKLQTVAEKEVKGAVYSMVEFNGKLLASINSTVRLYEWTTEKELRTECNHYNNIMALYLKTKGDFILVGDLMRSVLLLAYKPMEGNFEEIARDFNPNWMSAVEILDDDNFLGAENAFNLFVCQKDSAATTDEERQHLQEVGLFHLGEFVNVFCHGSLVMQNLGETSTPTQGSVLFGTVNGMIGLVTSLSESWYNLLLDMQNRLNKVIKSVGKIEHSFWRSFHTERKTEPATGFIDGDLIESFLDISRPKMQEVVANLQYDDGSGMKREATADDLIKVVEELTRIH
UniProt P05928: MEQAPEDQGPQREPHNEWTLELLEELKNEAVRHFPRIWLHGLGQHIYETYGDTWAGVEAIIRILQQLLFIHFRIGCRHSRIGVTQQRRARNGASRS
UniProt P12520: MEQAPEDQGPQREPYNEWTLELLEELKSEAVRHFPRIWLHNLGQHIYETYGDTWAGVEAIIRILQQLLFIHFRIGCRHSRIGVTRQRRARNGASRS
UniProt Q9Y4B6: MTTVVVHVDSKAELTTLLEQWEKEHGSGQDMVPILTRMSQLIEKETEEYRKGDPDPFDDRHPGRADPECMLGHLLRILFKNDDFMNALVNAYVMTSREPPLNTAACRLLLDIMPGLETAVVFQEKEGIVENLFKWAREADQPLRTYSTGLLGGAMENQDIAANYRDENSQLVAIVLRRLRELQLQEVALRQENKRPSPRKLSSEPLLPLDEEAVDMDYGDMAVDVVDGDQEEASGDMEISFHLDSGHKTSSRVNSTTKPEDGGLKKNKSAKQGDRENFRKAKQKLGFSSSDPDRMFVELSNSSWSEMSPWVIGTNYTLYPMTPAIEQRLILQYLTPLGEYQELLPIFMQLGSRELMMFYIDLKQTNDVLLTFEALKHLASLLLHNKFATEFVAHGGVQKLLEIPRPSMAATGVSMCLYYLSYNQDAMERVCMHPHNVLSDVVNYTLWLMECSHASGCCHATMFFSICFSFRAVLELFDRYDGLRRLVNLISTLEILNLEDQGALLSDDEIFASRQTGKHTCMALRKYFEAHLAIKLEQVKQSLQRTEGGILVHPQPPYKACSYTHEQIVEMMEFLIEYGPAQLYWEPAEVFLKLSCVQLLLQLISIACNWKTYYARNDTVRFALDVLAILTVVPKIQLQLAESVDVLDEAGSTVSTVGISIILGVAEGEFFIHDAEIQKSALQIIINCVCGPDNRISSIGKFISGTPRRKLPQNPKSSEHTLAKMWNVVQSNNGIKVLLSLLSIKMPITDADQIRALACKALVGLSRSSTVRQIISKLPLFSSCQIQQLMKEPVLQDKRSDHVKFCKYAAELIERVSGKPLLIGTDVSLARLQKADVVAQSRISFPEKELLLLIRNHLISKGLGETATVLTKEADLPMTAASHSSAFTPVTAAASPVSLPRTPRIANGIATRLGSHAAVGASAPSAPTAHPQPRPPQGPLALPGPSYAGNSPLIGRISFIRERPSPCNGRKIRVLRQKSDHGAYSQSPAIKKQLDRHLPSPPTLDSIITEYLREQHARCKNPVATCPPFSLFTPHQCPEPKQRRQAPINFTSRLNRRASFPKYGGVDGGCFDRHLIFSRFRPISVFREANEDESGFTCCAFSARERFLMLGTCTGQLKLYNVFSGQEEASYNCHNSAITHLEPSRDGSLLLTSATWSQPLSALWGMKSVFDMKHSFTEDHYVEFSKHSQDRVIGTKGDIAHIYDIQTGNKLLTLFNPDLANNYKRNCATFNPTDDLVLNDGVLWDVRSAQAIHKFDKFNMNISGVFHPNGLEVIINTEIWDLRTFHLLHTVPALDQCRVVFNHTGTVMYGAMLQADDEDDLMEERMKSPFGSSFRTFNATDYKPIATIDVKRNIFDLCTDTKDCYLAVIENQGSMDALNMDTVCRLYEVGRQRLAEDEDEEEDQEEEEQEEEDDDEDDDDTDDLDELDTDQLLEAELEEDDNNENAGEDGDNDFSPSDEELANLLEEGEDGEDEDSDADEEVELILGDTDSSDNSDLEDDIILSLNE

[2] = molecular target: T2, Plk4 (endogenous) (human (endogenous in HEK293T, CEM-SS, HEK293)) (UniProt O00444); assay: co-IP; CEM-SS cells infected with HIV-1 and treated with 200 nM centrinone for 3 h; endogenous Plk4 precipitated with mouse anti-Plk4 (6H5) antibody; immunoblot
T2 sequence: T1 sequence

[3] = molecular target: T2, Plk4 (endogenous) (human (endogenous in HEK293T, CEM-SS, HEK293)); assay: co-IP
[4] = molecular target: T3, Plk4 CTD (transfected, Fig. 2b) (UniProt O00444); assay: co-IP; HEK293T cells transfected with the indicated constructs; TBSN buffer (20 mM Tris-HCl pH 8.0, 120 mM NaCl, 0.5% Nonidet P-40, 5 mM EGTA, 1.5 mM EDTA, 2 mM DTT); immunoblot; Supplementary Fig. 2b under thymidine or nocodazole treatment
T3 sequence: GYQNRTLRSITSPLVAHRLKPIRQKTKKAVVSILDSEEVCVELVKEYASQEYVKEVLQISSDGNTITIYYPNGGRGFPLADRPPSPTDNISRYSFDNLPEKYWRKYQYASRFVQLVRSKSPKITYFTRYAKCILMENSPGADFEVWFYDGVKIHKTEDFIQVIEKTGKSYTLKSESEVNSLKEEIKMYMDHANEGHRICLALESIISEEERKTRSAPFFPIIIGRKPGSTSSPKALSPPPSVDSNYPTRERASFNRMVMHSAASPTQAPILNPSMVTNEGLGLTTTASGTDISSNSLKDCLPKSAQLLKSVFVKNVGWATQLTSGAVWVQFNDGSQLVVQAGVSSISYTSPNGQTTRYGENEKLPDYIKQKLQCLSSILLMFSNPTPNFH

“DDB1 (co-immunoprecipitation in HEK293T) (from UniProt Q16531 1-1140)” was tested, and the binding [1] was “binds”.
For “FLAG-Vpr (Lai strain) (from UniProt P05928 1-96)”, the binding [1] was “binds”.
“HIV-1 Vpr (NL4-3), transfected (from UniProt P12520 1-96)” was tested, and the binding [1] was “binds”.
In the case of “Vpr expressed from HIV-1 in infected CEM-SS cells (from UniProt P12520 1-96)”, the binding [2] is reported as “binds”.
In the case of “Vpr expressed from lentiviruses in HEK293 cells (from UniProt P12520 1-96)”, the binding [3] is reported as “binds”.
“VprBP (endogenous) (from UniProt Q9Y4B6 1-1507)” was tested, and the binding [3] was “binds” and the binding [2] was “binds”.
For “VprBP (transfected; construct not specified in the text) (from UniProt Q9Y4B6 1-1507)”, the binding [1] was “binds”.
With “full-length VprBP (transfected) (from UniProt Q9Y4B6 1-1507)” the binding [4] was “binds”.
